# In PubChem BioAssay AID1347073 (National Center for Advancing Translational Sciences (NCATS), 2019):
# Screen size: about 45,000 compounds; about 200 (0.44%) were called active. Not shown: some 7% with an inconclusive outcome. The call rests on the fitted dose curve; in most records, active means well fitted activation curve with a large enough effect; inconclusive means small, poorly fitted or top-dose-only effect; inactive means no such curve, though single readings can be large or run the other way. Some of the results follow.
# Assay: qHTS of TDP-43 Inhibitors: NCGC Sytravon Library Screen; further: 0% is about no effect; nearly all actives have a fitted effect of over 55% in size
# Conditions: yeast TDP-43 toxicity rescue, BacTiter-Glo growth, 24 h; series mostly up to 46.1 µM; growth rescue (activation): at the top concentration
# Method in brief: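 TDP-43-expressing yeast, pregrown in raffinose, seeded at OD600 0.02 in galactose medium with compound for 24 hr at 30 deg C. Growth read by BacTiter-Glo luminescence, so rescue of toxicity appears as activation.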
row,SMILES,growth rescue (activation)
1,COc1ccc(C(=O)NCC(=O)OCC(=O)Nc2sccc2C#N)cc1OC,inactive: -10.3%
2,CC(=O)c1ccc(NC(=O)C(C)OC(=O)COc2ccc(C#N)cc2)cc1 (stereo not drawn),inactive: 15.4%
3,Cc1cc(Br)ccc1NC(=O)c1cnc(N2CCN(c3ccccn3)CC2)c2ccccc12,inactive: 10.7%
4,O=C(NCc1cccc(Cl)c1)C1CCN(C(=O)c2sccc2-n2cccc2)CC1,inactive: 7.21%
5,CN(C)S(=O)(=O)c1cccc(-c2csc(N/N=C/c3ccco3)n2)c1,inactive: 25.8%
6,O=C(CS(=O)(=O)c1ccccc1)Nc1ccc(S(=O)(=O)Nc2ccccn2)cc1,inactive: 2.39%
7,Cc1cccc(C(=O)NNC(=O)CSc2nnc(C3CC3)n2C)c1,inactive: -25.2%
8,O=S(=O)(NCCc1nc2ccccc2[nH]1)c1ccccc1,inactive: 3.99%
9,O=C(C1CC(=O)N(c2ccc(Cl)cc2)C1)N1CCN(Cc2ccc3c(c2)OCO3)CC1 (stereo not drawn),inactive: 1.03%
10,Cn1ncc(N2CCN(C(=O)c3ccc(Cl)cc3)CC2)c(Cl)c1=O,inactive: 3.76%
11,COc1cccc(C(NC(C)=O)c2nc(-c3ccc(OC)nc3)cs2)c1 (stereo not drawn),inactive: 24.5%
12,CC(C)(Cc1ccc(O)cc1)NC(=O)CC(=O)N=Nc1c(O)[nH]c2ccc(Br)cc12,inactive: 7.94%
13,CCc1cccc(NC(=O)c2ccc(CNc3c(N4CCCC4)c(=O)c3=O)cc2)c1,inactive: -1.72%
14,Cc1nc2c(c(=O)n1CCC(C)C)c1nc3ccccc3nc1n2Cc1ccc2c(c1)OCO2,inactive: -1.1%
15,O=C(CCNC(=O)c1ccccc1)NCCc1ccc(Cl)cc1,inactive: 1.73%
16,CSCc1ccc(C(=O)NCc2ccc(F)cc2)cc1,inactive: 14.3%
17,Cc1cccc(N=Nc2ccc(O)c3ncccc23)c1,inactive: -55.1%
18,CC(NC(=O)c1cccc(Br)c1)c1ccccc1 (stereo not drawn),inactive: 30.4%
19,CCc1c(C)nc2nc(SCc3ccccc3Cl)[nH]n2c1=O,inactive: -3.8%
20,O=C(Nc1ccccc1F)C1CCN(C(=O)NC2CCCCC2)CC1,inactive: 19.5%
21,O=C(Nc1ccc(F)cc1)C1CCCCC1,inactive: 26.1%
22,O=C(COc1ccc(S(=O)(=O)N2CCOCC2)cc1Cl)N1CCOCC1,inactive: 1.12%

row,SMILES,growth rescue (activation)
1,Cc1ccccc1Cn1cc(C)c(=O)[nH]c1=O,inactive: -10.9%
2,Cc1cccc(OCC(=O)N(Cc2sccc2C)C2CCS(=O)(=O)C2)c1 (stereo not drawn),inactive: 15.6%
3,CCCCC(C(=O)NC1CCCC1)N(C(=O)c1snc(C(N)=O)c1N)c1ccc(F)cc1 (stereo not drawn),inactive: 8.09%
4,Nc1nc(NCCCN2CCOCC2)nc(Nc2cccc(F)c2)c1[N+](=O)[O-],inactive: 4.59%
5,COC(=O)c1cc2c(ccn2-c2ccc(F)cc2)n1CC(=O)C(C)(C)C,inactive: 1.96%
6,C=CCNc1nc2cc(-c3cccc(Cl)c3)sc2c(=O)n1C,inactive: 24.1%
7,O=C(/C=C/c1ccc(Cl)cc1)Nc1cc(S(=O)(=O)N2CCOCC2)ccc1N1CCOCC1,inactive: 9.56%
8,CCc1nc2sccc2c(=O)[nH]1,inactive: -4.74%
9,CCN1CCN(CCCOc2ccc(Cl)cc2Br)CC1,inactive: -4.81%
10,O=S(=O)(Cc1cc(-c2ccccc2)no1)c1ccccc1,inactive: 11.3%
11,Cc1cc(C)n2c(SCC(O)=C(C#N)c3nc4ccccc4[nH]3)nnc2n1,inactive: 0.126%
12,CC(=O)Oc1ccc(-c2cccc(C(=O)N3CCCCC3)c2)cc1,inactive: -3.7%
13,CCc1cccc(NC(=S)N(CCOC)C2CCN(C(C)=O)CC2)c1,inactive: -5.43%
14,Cc1c(C)n(CCCN(C)C)c2ncnc(NCc3ccccc3)c12,inactive: 1.88%
15,CC(=O)Nc1ccc(Sc2ncnc3scc(-c4ccccc4)c23)cc1,inactive: 23.6%
16,CCCC(C)NC(=O)Cc1ccc(Br)cc1 (stereo not drawn),inactive: 10.6%
17,Cc1ccc(C2(c3noc(CN4CCC(c5ccncc5)CC4)n3)CCCC2)cc1,inactive: 5.49%
18,O=C(CNc1n[nH]c(=O)[nH]c1=O)N/N=C/C1CC=CCC1 (stereo not drawn),inactive: -6.87%
19,O=CNc1cc(-c2ccc(C(=O)NC3CC3)cc2)cn2c(-c3ccc(F)cc3)cnc12,inactive: 4.02%
20,COc1ccnc(Oc2ccc(Cl)cc2)c1C#N,inactive: 12.5%
21,O=C(CSc1nc2ccccc2c(=O)n1Cc1ccccc1)Nc1ccc(Br)cc1C(=O)O,inactive: 4.68%
22,COc1cc(C(=O)Nc2ccc3c(c2)OCO3)ccc1OCc1c(C)noc1C,inactive: 19.1%

row,SMILES,growth rescue (activation)
1,CC(NC(=O)c1ccccc1NC(=O)c1ccncc1)c1ccccc1 (stereo not drawn),inactive: 10.3%
2,CCc1cc(C(=O)N2CCCC(Nc3ccc(F)c(F)c3)C2)n(C)n1 (stereo not drawn),inactive: 15%
3,COc1ccc(Cl)cc1NC(=O)C(C)NC(c1ccccc1)c1ccccc1 (stereo not drawn),inactive: 14.1%
4,COc1ccc(N(C2=NCCCS2)S(=O)(=O)c2ccc(C(C)(C)C)cc2)cc1,inactive: -2.31%
5,COc1cc(/C=N/NC(=O)COc2cc(C)cc(C)c2)ccc1OS(=O)(=O)c1ccc(C)cc1,inactive: 15.6%
6,CCCNC(=O)c1c(Cl)cnn1-c1ccc(C)cc1,inactive: 6.17%
7,CC1(Cc2ccc(S(C)(=O)=O)cc2)C(=O)Nc2ccc(Cl)cc21 (stereo not drawn),inactive: 11.1%
8,Cc1ccc(C(=O)NCc2cccnc2)cc1S(=O)(=O)Nc1ccccc1,inactive: 13.6%
9,Cc1cc(C(=O)Nn2c(-c3ccc(Br)cc3)nc3ccccc3c2=O)ccc1[N+](=O)[O-],inactive: 2.3%
10,O=C(Nc1nnc(SCc2ccc(F)cc2)s1)c1ccc2c(c1)C(=O)N(c1ccccc1Cl)C2=O,inactive: 6.62%
11,CCOC(=O)c1c(NC(=O)c2c(C(=O)O)cccc2[N+](=O)[O-])sc(C)c1C,inactive: 3.72%
12,COCCNc1nc(NCCOc2ccccc2Cl)c2sccc2n1,inactive: 9.54%
13,Cc1cccc(C(=O)N[C@H](C(=O)OCC(=O)NC(=O)c2cccn2C)C(C)C)c1,inactive: -3.5%
14,CCOC(=O)c1c(CC(C)C)csc1/N=C/C1C(=O)CC(C)(C)CC1=O,inactive: 15.4%
15,O=C(O)c1ccc(S(=O)(=O)/N=C2\C=C(Nc3ccccc3F)C(=O)c3ccccc32)cc1,inactive: -27.5%
16,COc1cc(C)c(NC(=S)Nc2cccc(Cl)c2)cc1OC,inactive: -18.8%
17,NC(=O)c1cc(S(=O)(=O)N2CCc3ccccc3C2)cs1,inactive: -1.51%
18,COC(=O)CC(c1ccc(C#N)cc1)n1c(C)ccc1C (stereo not drawn),inactive: 21.7%
19,COc1cccc(C(=O)NNC(=O)CCN2CCN(c3ccccc3)CC2)c1,inactive: 8.36%
20,CCNc1nc(NCC)n2c(SCC(=O)NC34CC5CC(CC(C5)C3)C4)nnc2n1,inactive: -25.3%
21,COc1ccc(-c2nc(-c3cccnc3)no2)cc1OC,inactive: 13.9%
22,CCCCNC(=O)C1(C)CCCCN1C(=O)c1cc(-c2ccccc2)cs1 (stereo not drawn),inactive: 15.1%

row,SMILES,growth rescue (activation)
1,S=C(NCc1ccc(Cl)cc1)Nc1ccc(Cl)cc1Cl,inactive: -25.7%
2,O=C(O)CSCC(=O)NCc1ccccc1Cl,inactive: 1.93%
3,C=CCN=C(C)C1=C(O)C(C)OC1=O (stereo not drawn),inactive: 15.4%
4,Cc1ccc(NC(=O)CNC(C)c2ccccc2)cc1 (stereo not drawn),inactive: -9.51%
5,S=c1[nH]nc(-c2cc(-c3ccccc3)n[nH]2)n1/N=C/c1c2ccccc2cc2ccccc12,inactive: -0.184%
6,COc1ccc(NC(=O)C2CCCN(C(=O)Nc3ccc(OC)cc3)C2)cc1 (stereo not drawn),inactive: -6.3%
7,Cc1[nH]c(=O)[nH]c(=O)c1S(=O)(=O)N1CCCCC1,inactive: 13.3%
8,O=C(CSC1=NCCS1)NC(c1ccccc1)c1ccccc1,inactive: -0.763%
9,COc1ccc(C2CC(c3cccs3)=NN2c2ccc(F)cc2)cc1OC (stereo not drawn),inactive: 3.24%
10,Cc1ccc2ccccc2c1C(O)c1ncc(-c2ccc(F)cc2)[nH]1 (stereo not drawn),inactive: -5.81%
11,C/C(=N\NC(=O)CCCCCNC(=O)c1ccccc1)c1ccccc1O,inactive: 11.5%
12,CCC(CC)NC(=O)CSc1nnc(-c2c[nH]c3ccccc23)o1,inactive: 0.706%
13,COc1ccccc1NC(=O)NC1(C(=O)N2CCCCC2)CCCCC1,inactive: -8.01%
14,O=C(O)c1ccc(S(=O)(=O)c2ccccc2C(=O)O)c([N+](=O)[O-])c1,inactive: -5.63%
15,COc1cc2nc(Cl)nc(N3CCCCC3)c2cc1OC,inactive: -18.2%
16,Cc1ccc(OCCOCCOc2ccc(Br)cc2/C=N\NC(=O)c2ccncc2)cc1,inactive: -6.23%
17,CC(NC(=O)C1CCN(S(=O)(=O)c2cc([N+](=O)[O-])ccc2Cl)CC1)c1ccccc1 (stereo not drawn),inactive: 1.43%
18,CCCc1cc(=O)[nH]c(Nc2ccc3c(c2)OCCO3)n1,inactive: 6.9%
19,O=C(NCc1cccnc1)c1ccc(COc2ccccc2Br)cc1,inactive: 18.4%
20,Cc1ccc(NC(=O)C2Cc3ccccc3O/C2=N\O)cc1C (stereo not drawn),inactive: 13.3%
21,COc1ccc(NC(=O)C(C)N2c3cccc4cccc(c34)S2(=O)=O)c(OC)c1 (stereo not drawn),inactive: -4.27%
22,O=C(c1ccccn1)N1CCN(c2cccc(C(F)(F)F)c2)CC1,inactive: 12.1%

row,SMILES,growth rescue (activation)
1,CC(=O)c1ccc(-c2cnc3c(NC=O)cc(-c4cccc(NS(C)(=O)=O)c4)cn23)cc1,inactive: 9.63%
2,Cc1ccc(S(=O)(=O)Nc2c(C)[nH]c(=O)[nH]c2=O)cc1C,inactive: -1.41%
3,Cc1nc(C)c(-c2csc(Nc3ccc(O)cc3C)n2)s1,inactive: 4.48%
4,Fc1ccccc1N1CCN(C2CCCN(Cc3cccc(C(F)(F)F)c3)C2)CC1 (stereo not drawn),inactive: 4.94%
5,CCOc1ccccc1N1CC(C(=O)N(C)Cc2cccnc2)CC1=O (stereo not drawn),inactive: 4.65%
6,O=C(NCc1ccco1)c1ccc(COc2cc(Cl)ccc2Cl)cc1,inactive: 18.1%
7,CSc1ccc(CN(C)CC(=O)Nc2cccc(Br)c2)cc1,inactive: -2.53%
8,COc1cc(Cl)c(C)cc1NC(=O)CSc1nnc(CCC(=O)O)c(=O)[nH]1,inactive: -3.26%
9,Cc1ccc2nc(NC(=O)CSCC(=O)OCC(=O)c3ccc(Br)cc3)sc2c1,inactive: -14.8%
10,Cc1ccc(CCN2CC(C(=O)NC(C)C)CC2=O)cc1 (stereo not drawn),inactive: 7.8%
11,CCCCn1c(SCN2C(=O)c3ccccc3C2=O)nc2cc(S(N)(=O)=O)ccc21,inactive: -11%
12,Fc1cccc(-n2ncc3c2ncn2nc(COc4ccc(Cl)cc4)nc32)c1,inactive: 15.3%
13,CCC(=O)N1CCCC1(C)C(=O)Nc1ccc2scnc2c1 (stereo not drawn),inactive: -4.37%
14,CCN(CC)C(=O)CN(c1cccc(Br)c1)S(C)(=O)=O,inactive: -17.5%
15,CC1=N/C(=C\c2ccc3c(c2)OCO3)C(=O)N1c1ccc(C(=O)O)cc1,inactive: -0.24%
16,Cc1cc(S(=O)(=O)NCCN2CCOCC2)ccc1Cl,inactive: -0.848%
17,CC(OC(=O)CCC(=O)c1cccs1)C(=O)Nc1ccccc1[N+](=O)[O-] (stereo not drawn),inactive: 2.88%
18,CC12c3ccccc3C(c3ccccc31)C1C(=O)N(Cc3cccnc3)C(=O)[C@H]12 (stereo partly drawn),inactive: -3.52%
19,CC(=O)c1cccc(NC(=O)c2ccc(S(=O)(=O)N3CCCC3)cc2)c1,inactive: 23.1%
20,Oc1nc(-c2ccc(Br)cc2)n2ccncc12,inactive: -6%
